Assay results published in PubChem BioAssay AID624296 (National Center for Advancing Translational Sciences (NCATS), 2012).
Out of some 350,000 compounds screened, about 9,900 (2.8%) were called active. The shares of active, inactive and inconclusive entries below differ from those in the screen. Calls follow the shape of the dose curve; as a rule, active = well fitted activation curve with a large enough effect; inconclusive = small, poorly fitted or top-dose-only effect; inactive = no such curve, though single readings can be large or run the other way. No potency is given beside an inconclusive call; the fits are too rough.

Assay: A quantitative high throughput screen for small molecules that induce DNA re-replication in MCF 10a normal breast cells. Also: nearly all actives have a fitted effect of over 50% in size.
Conditions: MCF 10A DNA re-replication, Hoechst nuclear intensity, 48 h; series mostly up to 46.1 µM
Potency is read from the fitted curve at half-maximal effect; tags tell the direction and shape of the fitted curve.

| SMILES | Potency |
| --- | --- |
| O=C(Nc1ccc(SC(F)F)cc1)c1cc(-c2ccncc2)nc2ccccc12 | inconclusive [activator, single point] |
| CCOC(=O)c1ccc2c(c1)nc(COc1ccc3ccccc3c1)n2CC | inconclusive [activator, single point] |
| CCC(=O)N(Cc1cc(=O)[nH]c2ccccc12)c1ccccc1 | inconclusive [activator, single point] |
| COCCNC(=O)C(=O)Nc1cc2c3c(c1)CCC(=O)N3CCC2 | inconclusive [activator, single point] |
| COc1ccc([C@@H]2CC=C(C(=O)O)[C@H](c3ccc(Br)cc3)N2S(=O)(=O)c2ccc(C)cc2)cc1OC | inconclusive [activator, single point] |
| O=C(NCCOc1ccccc1)C1Nc2ccc(C(F)(F)F)cc2C2c3ccccc3CC12 (configuration not stated) | inconclusive [activator, single point] |
| Cc1ccc2sc(N(CCCN(C)C)C(=O)c3ccc(Br)s3)nc2c1C | active: 13 µM |
| CC(C)Nc1nc(Cl)nc(N(C#N)CN2C(=O)c3ccccc3C2=O)n1 | active: 16.4 µM |
| COc1ccc(C(CNC(=O)c2oc3cc(C)c(C)cc3c2C)N2CCCCC2)cc1 (configuration not stated) | inactive |
| Cc1ccc(C(=O)N/N=C\c2ccc[nH]2)cc1[N+](=O)[O-] | inconclusive [activator, partial curve, poor fit] |
| Cc1ccc(Nc2nc(N)nc(CSc3nc4ccccc4s3)n2)cc1 | inconclusive [activator, single point] |
| CCOc1cc(/C=N\NC(=O)Cn2nc([N+](=O)[O-])cc2C)ccc1OCc1cccc2ccccc12 | inconclusive [activator, single point] |
| CS(=O)(=O)N1CCC2CC1c1cc(-c3ccccc3)ccc12 (configuration not stated) | inactive |
| O=C1C=C(c2ccc(OC(F)(F)F)cc2)C[C@@H](c2ccc(Cl)cc2)C1 | inconclusive [activator, full curve, poor fit] |
| Cc1cccc(NC(=S)NCCSc2ccc(Cl)cc2)c1 | inconclusive [activator, single point] |
| O=C(NCc1ccco1)c1csc2c1CCCC2 | inactive |
| Cc1ccc(CNC(=O)CO/N=C/c2ccc(C(C)(C)C)cc2)cc1 | inconclusive [activator, partial curve, poor fit] |
| COc1ccccc1CC(=O)Nc1ccc([N+](=O)[O-])cc1OC | inconclusive [activator, single point] |
| COc1ccc(/C=C2/S/C(=N/N=C3\CC4CCC3(C)C4(C)C)NC2=O)cc1 (configuration not stated) | inconclusive [activator, partial curve, poor fit] |
| O=C(Cc1ccccc1)N/N=C/c1cc(Br)cc(Br)c1O | active: 7.31 µM |
| COC1=C(Nc2ccccc2)C(=O)c2ccccc2C1=O | inactive |
| CC(=O)N(C(C)=O)N1C(=O)C2C3c4ccccc4C(c4ccccc43)C2C1=O (configuration not stated) | inconclusive [activator, full curve] |
| CCN(C(=O)c1cc2c(=O)[nH]c3ccc(C)cc3c2s1)c1ccccc1F | inconclusive [activator, partial curve, poor fit] |

| SMILES | Potency |
| --- | --- |
| CS(=O)(=O)N(CCc1ccccc1)CC(=O)N1CCN(c2ccc(F)cc2)CC1 | inconclusive [activator, single point] |
| COc1ccc(CN2CCc3ccc(NC(=O)c4ccncc4)cc3C2)c(F)c1 | inconclusive [activator, single point] |
| Cc1nnc(SCC(=O)N2N=C(c3ccc(Cl)cc3)CC2c2ccco2)[nH]c1=O (configuration not stated) | inconclusive [activator, single point] |
| CC(C)C(c1nnnn1C1CCCC1)N1c2ccccc2CC1C (configuration not stated) | inconclusive [activator, single point] |
| O=[N+]([O-])c1ccc(NS(=O)(=O)c2cccc3cccnc23)cc1 | inactive |
| Cc1cc(N2CCOCC2)nc2ccc(NC(=O)CCC(=O)N3CCN(c4ccc(F)cc4)CC3)cc12 | inconclusive [activator, single point] |
| COc1ccc(N2C(=O)C(C)C(Cc3ccc(C)cc3)C2=O)cc1 (configuration not stated) | inconclusive [activator, partial curve, poor fit] |
| Cc1cc(C)c(S(=O)(=O)Cc2ccccc2)c(OC(C)C)n1 | inactive |
| CNC(=S)N/N=C/c1ccc(OCc2ccccc2)c(Br)c1 | inconclusive [activator, partial curve, poor fit] |
| COc1ccc(/C=N/NC(=O)c2cccc([N+](=O)[O-])c2)cc1OS(=O)(=O)c1ccc(C)cc1 | inconclusive [activator, full curve, poor fit] |
| COC(=O)c1c(O)ccc(Oc2ccccc2)c1C(=O)OC | inconclusive [activator, single point] |
| COC(=O)CSc1ncnc2c1sc1nc3c(cc12)COC(C)(C)C3 | inactive |
| CC(Cc1ccccc1)NC(=O)c1cc([N+](=O)[O-])ccc1Cl (configuration not stated) | inactive |
| CC(C)(C)OC(=O)NCc1ccc(NC(=O)c2nc[nH]c2C(=O)N[C@@H](Cc2ccccc2)C(=O)OCc2ccccc2)cc1 | inconclusive [activator, partial curve] |
| N#Cc1ccc(-c2nc3cc(Cl)ccc3c(=O)n2O)cc1 | inconclusive [activator, single point] |
| Cc1cccc(NCc2cccc3ccccc23)n1 | inactive |
| COc1ccc2c(c1)-c1c(ssc1=S)C(C)(C)N2 | active: 11.6 µM |
| O=S(=O)(c1ccccc1)N1c2cc(Cl)ccc2Oc2nc3ccccc3nc21 | inconclusive [activator, single point] |
| CCN1C(=O)/C(=C\c2ccncc2)SC1=Nc1ccc(C)c(C)c1 | inconclusive [activator, single point] |
| FC(F)(F)c1cnc(N2CCCN(C(=S)Nc3ccccc3)CC2)c(Cl)c1 | inconclusive [activator, partial curve] |
| O=C(Nc1ccc(F)c(F)c1)c1cnc(-c2ccccc2)nc1-c1ccccc1 | active: 13 µM |
| CN(Cc1ccc(C(F)(F)F)cc1)C(=O)c1ccc2ccccc2n1 | inconclusive [activator, partial curve, poor fit] |
| O=C(NCCCN1CCCCCC1)c1ccc2c(Cl)c3c(nc2c1)CCCC3 | inconclusive [activator, partial curve, poor fit] |

| SMILES | Potency |
| --- | --- |
| N#Cc1ccc(/C=C/C(=O)c2cccnc2)cc1 | active: 7.31 µM |
| CCCCN(CCCC)S(=O)(=O)c1ccc(NS(=O)(=O)c2ccc(NC(C)=O)cc2)cc1 | active: 14.6 µM |
| FC(F)(F)c1cnc2c(-c3ccc(Cl)cc3Cl)noc2c1 | inconclusive [activator, partial curve, poor fit] |
| Cc1cc(Cl)ccc1C(=O)C1CCCN(C(=O)c2ccc3ncccc3c2)C1 (configuration not stated) | inconclusive [activator, partial curve, poor fit] |
| Cc1ccc(-c2cc(O)cc3sc(=O)oc23)cc1C | inconclusive [activator, partial curve, poor fit] |
| COc1cc(NC(=O)COc2c(C)cc(C)cc2[N+](=O)[O-])c(OC)cc1Cl | inconclusive [activator, partial curve] |
| O=C(NCc1ccccc1Br)c1cccc2c1C(=O)c1ccc(-c3ccc(OC(F)(F)F)cc3)cc1S2(=O)=O | inactive |
| CCOc1ccccc1C(=O)N1CCC(n2nnc3cc(C)ccc32)CC1 | inactive |
| Cc1nn2c(COc3ccc(NC(=O)C(C)C)cc3)nnc2c2ccccc12 | inactive |
| COc1cccc(CC(=O)OC(C)C(=O)Nc2ncc(Cl)cc2Cl)c1 (configuration not stated) | inconclusive [activator, single point] |
| CCCS(=O)(=O)c1c(S(=O)(=O)CCC)c2c(N)cccn2c1C(=O)OC | inactive |
| COc1cccc(CNc2ccc3[nH]c(=O)[nH]c3c2)c1OCc1ccccc1F | inconclusive [activator, single point] |
| C/C(=N\NC(=O)c1cc(-c2cccs2)nc2ccccc12)c1ccccn1 | inconclusive [activator, full curve, poor fit] |
| Cc1ccc2oc(=O)c(/C=C(\O)CC(C)C)nc2c1 | inconclusive [activator, single point] |
| O=[N+]([O-])c1ccc(-c2csc(N3CCCCCC3)n2)cc1 | inconclusive [activator, partial curve, poor fit] |
| Cc1cccc(-n2ncc3c(Nc4c(C)n(C)n(-c5ccccc5)c4=O)ncnc32)c1 | inactive |
| N/C(=N\OC(=O)c1ccccc1)c1ccncc1 | inactive |
| COc1ccc(NC(=O)c2c(F)cccc2F)cc1S(=O)(=O)Nc1ccc(Br)cc1 | inconclusive [activator, single point] |
| Cc1cccc(CN2CCC(N3CC(C)OC(C)C3)CC2)c1 (configuration not stated) | inconclusive [activator, full curve, poor fit] |
| CS(=O)(=O)c1ncc(Cl)c(C(=O)Nc2ccc3ccccc3c2)n1 | inconclusive [activator, full curve, poor fit] |
| O=C(C[C@H]1C/C=C\C[C@@H](Cc2ccc(F)cc2)C(=O)OC[C@H]2CCCN2C1=O)N[C@H](CO)Cc1ccccc1 | inactive |
